According to the supplement of paper PMC10369915:
Some of the results follow. Rule as the data show it: active = 3.2 or more and inactive = the rest. Only a few entries rise above the background.

B1: SF3B2_HUMAN_592_YA (peptide)
chain: TIHGDLAYEGKEFET
B2: SH2D2A_HUMAN_305 (peptide)
chain: GEAPSNIYVEVEDEG
B3: RU2B_HUMAN_151 (peptide)
chain: VPDYPPNYILFLNNL
B4: RU2B_HUMAN_151_YA (peptide)
chain: VPDAPPNYILFLNNL
B5: SH2B1_HUMAN_494 (peptide)
chain: VHPLSAPYPPLDTPE
B6: SCIMP_HUMAN_131_YA (peptide)
chain: AIEPEDDYDDVEIPA
B7: SH2D3_HUMAN_793 (peptide)
chain: VAHHGGLYHTNAEVK
B8: RUFY1_HUMAN_389 (peptide)
chain: TKVELETYKQTRQGL
B9: SHC4_HUMAN_424 (peptide)
chain: NSKCSSVYENCLEQS
B10: RS10_HUMAN_12 (peptide)
chain: KKNRIAIYELLFKEG
B11: SHC3_HUMAN_342 (peptide)
chain: DGSDHPYYNSIPSKM
B12: RRAS_HUMAN_66 (peptide)
chain: DPTIEDSYTKICSVD
B13: SCAM3_HUMAN_83 (peptide)
chain: SPTEPKNYGSYSTQA
B14: SH2B2_HUMAN_629 (peptide)
chain: ARAVENQYSFYGGGG
B15: RPS6KA3_HUMAN_644 (peptide)
chain: KFSLSGGYWNSVSDT
B16: ATP4A_HUMAN_10_YA (peptide)
chain: KAENAELYSVELGPG
B17: SFR19_HUMAN_732 (peptide)
chain: SPKREVLYDSEGLSG
B18: SDCB1_HUMAN_46 (peptide)
chain: IPHDGNLYPRLYPEL

Biological target: SHP2 C-SH2 domain E139D
Assay: enrichment score (SH2-bound / input frequency) (ratio); bacterial display of known human phosphotyrosine sites (pTyr-Var adds point mutants) read by sequencing; higher = stronger binding; tyrosines were phosphorylated by kinases first
Conditions: peptide library: Human pTyr
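Also: displayed peptides selected on beads carrying the immobilized SH2 domain, with library peptides lacking any tyrosine serving as negative controls.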

Enrichment score, inactive:
B1 0.846
B2 1.52
B3 1.47
B4 1.34
B5 0.733
B6 1.4
B7 1.02
B8 0.709
B9 0.77
B10 2.33
B11 0.604
B12 1.06
B13 0.827
B14 0.876
B15 1.58
B16 0.779
B17 0.856
B18 0.667

Biological target: SHP2 C-SH2 domain wild-type
Assay: as above
Conditions: peptide library: Human pTyr

Enrichment score, inactive:
B1 0.533
B2 1.1
B3 1.38
B4 1.22
B5 0.584
B6 1.26
B7 0.911
B8 0.72
B9 0.715
B10 2.28
B11 0.546
B12 0.819
B13 0.591
B14 0.62
B15 1.16
B16 0.542
B17 0.692
B18 0.56

Biological target: SHP2 N-SH2 domain L43F
Assay: as above
Conditions: peptide library: Human pTyr

Enrichment score, inactive:
B1 0.699
B2 1.02
B3 1.46
B4 1.17
B5 0.707
B6 1.19
B7 0.904
B8 0.714
B9 0.635
B10 2.72
B11 0.766
B12 0.938
B13 0.525
B14 0.678
B15 1.51
B16 0.456
B17 0.702
B18 0.548

Biological target: SHP2 N-SH2 domain T42A
Assay: as above
Conditions: peptide library: Human pTyr

Enrichment score, inactive:
B1 0.495
B2 1.24
B3 1.35
B4 1.22
B5 0.623
B6 1.12
B7 0.988
B8 0.741
B9 0.722
B10 2.21
B11 0.612
B12 0.738
B13 0.673
B14 0.573
B15 1.2
B16 0.603
B17 0.768
B18 0.6

Biological target: SHP2 N-SH2 domain T52S
Assay: as above
Conditions: peptide library: Human pTyr

Enrichment score, inactive:
B1 0.628
B2 1.44
B3 1.34
B4 1.3
B5 0.757
B6 1.41
B7 1
B8 0.665
B9 0.723
B10 2.56
B11 1.03
B12 0.921
B13 0.555
B14 0.624
B15 1.37
B16 0.772
B17 0.81
B18 0.569

Biological target: SHP2 N-SH2 domain wild-type
Assay: as above
Conditions: peptide library: Human pTyr

Enrichment score, active:
B10 3.49

Enrichment score, inactive:
B1 0.53
B2 1.34
B3 1.65
B4 1.3
B5 1.04
B6 1.15
B7 1.01
B8 1.13
B9 0.727
B11 0.913
B12 0.944
B13 0.733
B14 0.601
B15 1.72
B16 0.667
B17 0.898
B18 0.662
